The list shows a part of the results.
B1: chr14:76904430:76904431:+_ENSMUSG00000022010_ENSMUST00000022587|mus_mus|mus_mus_mus_hu_True|18_48 (ssRNA)
RNA: GGGAGUUCUACAGUCCGACGAUCUGCAGCCAAAAACACCCUCGUGGAAAAAAAGAGGGAACACCAGCAGCCUUGUAUAAGCUAGAUAAAACCGCCUGGCUUUCCGCAGCCCAGGGAGUGAGAACGGACGGCAGCCCUAAUUUACAACAGAGGAUUGAGCAUCA
B2: chr2:217001844:217001845:+_ENSG00000079246_ENST00000392132|hu_hu|hu_hu_hu_mus_False|18_108 (ssRNA)
RNA: GGGAGUUCUACAGUCCGACGAUCACCGACUUGAGGAUUAGAUCUUUUGUCAUAAGCAUAUCGGACGAUGGCGACCAUGUUUAACUCAUCCAAAGCAUGAACGAGAGAGGAAAGGGCAACUGCAGCUGCCUCAUCAUCCUUUGCCAACAGAGGAUUGAGCAUCA
B3: chr18:52893488:52893489:-_ENSG00000196628_ENST00000354452|hu_hu|hu_hu_hu_mus_True|1_8 (ssRNA)
RNA: GGGAGUUCUACAGUCCGACGAUCUAUUUAGACCAUUUCCGCGGAGUUAUGGCAUUUACUCAGUGCUGAUAGGUGGAAAAACUACUUCAACAGGGAUUUUUUUUUUCCUUAAUACAUGCCAAGAUUGGUGUGGCUGUAAAAAUACAACAGAGGAUUGAGCAUCA
B4: chr9:14812383:14812384:-_ENSMUSG00000031934_ENSMUST00000164273|mus_mus|motif|central (ssRNA)
RNA: GGGAGUUCUACAGUCCGACGAUCAUAGCUCAAGUAGAUACAUGCCAACAGUAUAACCACAAAUGUCACCAGCCGGCAGCGGAUGUAUUUCAUGAUUAAAUGACUAGAGUUCUUUUUUGUCUUCAAGUACUGCUCCACGAUUGGCAACAGAGGAUUGAGCAUCA
B5: chr19:45826695:45826696:-_ENSMUSG00000025220_ENSMUST00000026243|mus_mus|motif|central (ssRNA)
RNA: GGGAGUUCUACAGUCCGACGAUCACCAAGUAUAACCACAUCCUUUGGAAAUCCUUCCAUUUUUGCAAUUUCAAAACAGCCGGACUUGCUGUAAAAUUCCAGAAUCCUUUUAUCAUCUGGUCUUACUUCACAGAAAGCCCCCCGCAACAGAGGAUUGAGCAUCA
B6: chr4:6323411:6323412:-_ENSMUSG00000028245_ENSMUST00000029910|mus_mus|FALSE|FALSE (ssRNA)
RNA: GGGAGUUCUACAGUCCGACGAUCAUAUUUUUAAUGUAGAAAAGAUGAACCUUUAGUAGCAUAAUGAAAUAUAAACCAUUGCUAUACACAGUAACAGACUUAAUGUUAUUAAGAAUCUGGGCACGCAGCACUGCCGAAAGGAACCAACAGAGGAUUGAGCAUCA
B7: 97413068_97416379_144_CDS_ENSG00000059573_ENST00000371224|human|control|control (ssRNA)
RNA: GGGAGUUCUACAGUCCGACGAUCCUUGACCCAGGGCAGAAGAUGUUGGUUGAAGGGCUGGAACCCACAGCGGUAAACUUGACUCAACAUGCUGCGAUGUGGUCACUAACCAAAGUAUCUUCCUCACCACCGCCGCCUUCGCCCCAACAGAGGAUUGAGCAUCA
B8: chr6:170626544:170626545:+_ENSG00000112584_ENST00000537664|hu_hu|motif|central (ssRNA)
RNA: GGGAGUUCUACAGUCCGACGAUCAGGGGUACAUCCAGGAUACUUGCUUCGGUGGUGCUCUGCCAGUUCUUUGAAAUUUACGGCUGUACAUAUAUGUGGGCAGGUACUUCCCACAAAUCCUUGCAAACCUCUCACACCCAUAACCAACAGAGGAUUGAGCAUCA
B9: chr4:76721835:76721836:+_ENSG00000138768_ENST00000264904|hu_mus|hu_hu_hu_mus_True|1_98 (ssRNA)
RNA: GGGAGUUCUACAGUCCGACGAUCGUUUGGCUGGGGUUCUGAGAUGCCUCUGGAAUAUAACUCAUGUUUGCUAAUAAAUCCUAGUUUCUCUAUGAAAUUCUCUUUGCCAAUCCUCUUCUCUAUUAGUUGCUUUAGUUCUCUUUCCAACAGAGGAUUGAGCAUCA
B10: 139069893_139071599_791_CDS_ENSG00000175110_ENST00000310776|human|control|control (ssRNA)
RNA: GGGAGUUCUACAGUCCGACGAUCAAUCUUUUUAUUAUUUACAAAAUACCACACCAUUCCACCAAAGUAUCUUGUUGAACGUAAAAGGUCAUAUUUUCCACGUUUAUCUAUAUCUUCAUAGGUCUUGUGAUGAACCUUGAUAUACAACAGAGGAUUGAGCAUCA
B11: chr1:76259871:76259872:+_ENSG00000137955_ENST00000319942|hu_mus|FALSE|FALSE (ssRNA)
RNA: GGGAGUUCUACAGUCCGACGAUCAUCCACCAUAUCUCCUGGUCUGUCUGCAAAUCCUCCCGUCUCUUCAUCUUGACACGCUAAGAUGAAACUUCGAAGCUUUUCUCUGUCAAUCCAAUGAAGUCUCCCGAUGAUCUUUAGGGACAACAGAGGAUUGAGCAUCA
B12: 90017295_90017415_685_3pUTR_ENSMUSG00000057706_ENSMUST00000082237|mouse|control|control (ssRNA)
RNA: GGGAGUUCUACAGUCCGACGAUCUGGAGAAGUGCUCUGCGGCAGAGAUGAUCUCCCUCCGAGCCAUAGCCACAUCCUCCUUCCUGCCCGUCACAACAAAGACAGGCUCCUCCCCGCGAACUGGGGUCUUGAUGUAAGUGUUGGCAACAGAGGAUUGAGCAUCA
B13: chr15:30001172:30001173:-_ENSG00000104067_ENST00000400011|hu_hu|motif|central (ssRNA)
RNA: GGGAGUUCUACAGUCCGACGAUCUGGUGGUCUGAAAGUUGCUGGCUUAUUCUGAGAUGGAGGUGGGUCUGGUUUGGACACGGAGGAAUUCUGAAAAUCCAAUGACACUGAAUUACCUUCACCAUGUGCUCCCUUAGAAUGUAUCAACAGAGGAUUGAGCAUCA
B14: chrX:102632674:102632675:+_ENSG00000166681_ENST00000361298|hu_hu|motif|central (ssRNA)
RNA: GGGAGUUCUACAGUCCGACGAUCGUGAUUAGAGAGCUCCCCCAUAAGGAUACGCAGACAAUUCCUCAACUGCAGCUCCCGGAGUUUUCUUCUGAUUUCUCUCAUCUCCUCCAUGAAUAUUUCCAUAUCAUCUCCAUCUCCACCCAACAGAGGAUUGAGCAUCA
B15: 11075323_11076074_1219_3pUTR_ENSG00000106443_ENST00000423760|human|control|control (ssRNA)
RNA: GGGAGUUCUACAGUCCGACGAUCAUACUGCUGAAGCCGGGCAUUGAUCCUUGCCUGUGCUUCUGGUGAUAGUUGCUUCUCUCUCUCUUGCAAAGACAUUUUACAAUAGGACUGUAGAGCCAAGUAGUUUUUUCUCUUCCACUUCAACAGAGGAUUGAGCAUCA
B16: 242283235_242285623_964_CDS_ENSG00000168385_ENST00000391971|human|control|control (ssRNA)
RNA: GGGAGUUCUACAGUCCGACGAUCAUGAAGGUCCUGGGUCACCUCCUGGAGAUCCUGCAUGUGGGUGAUGAGCAUGGUUCUCAGCUUCAGAAAGUCAUUGUGCUCUGGGUUCUCCACUUCCACAACACCCCAGGGGUAGAGGCGCAACAGAGGAUUGAGCAUCA
B17: 41533178_41533298_89_5pUTR_ENSMUSG00000061080_ENSMUST00000099761|mouse|control|control (ssRNA)
RNA: GGGAGUUCUACAGUCCGACGAUCCAUCAAAUCCAAGCAGGAGUCGGGGAGAAAGUGGAGGAACAAAUUUUCCGAAGGAAGAGUGCAAAUAUAAAAUGCUUUAAUGAUGAGGAGGCGACUGUCAAUGGCAGGGGUGCUUCCUUACAACAGAGGAUUGAGCAUCA
B18: chr5:132270174:132270175:-_ENSG00000072364_ENST00000265343|hu_mus|FALSE|FALSE (ssRNA)
RNA: GGGAGUUCUACAGUCCGACGAUCAGAAUCCCAGUUGGCAUCAGGGUCCCGAGGUGAUUUGGAGCGCUGAUGUUCCUUGCUAUGGUGAUCAUUCCCAUGAGACCUGGAAUGACUAGAACUUAAUGAAGAAACAGCCUGGGGUUUCAACAGAGGAUUGAGCAUCA
B19: chr1:220369670:220369671:-_ENSG00000118873_ENST00000358951|hu_hu|motif|central (ssRNA)
RNA: GGGAGUUCUACAGUCCGACGAUCGAAGCCAGUAAAUGGAUUGGACCCUACAGUGAUAUACUGAGACAUGGCAGGUGGACGGUUUUUAAUUGCUGCAUUAAAUCCACCUAUAUUGGAGGCAGUCUUCAUUUGAUCAAAGGGGGACAACAGAGGAUUGAGCAUCA
B20: chr6:83912004:83912005:+_ENSMUSG00000030016_ENSMUST00000032088|mus_mus|motif|central (ssRNA)
RNA: GGGAGUUCUACAGUCCGACGAUCUAAGUUGUAAAUUUCUUCUGUAGAAUAUCCUUUGUUAGGCAAAUUAGAAAUAAAUACGGCACUCAUUUCCUCCGAUUCCUUGUUCACUGGUUCCUUUUCUGUGGCCUCCAAAGUACCUGACAACAGAGGAUUGAGCAUCA
B21: chr15:40462788:40462789:+_ENSG00000156970_ENST00000287598|hu_hu|motif|central (ssRNA)
RNA: GGGAGUUCUACAGUCCGACGAUCAAAUCGAGGAUCACUAUAAUAUCGUUUUUCUCCUUGUAGUGCUUCUACAGCUCUUUCGGAUAACGUUGACAUAUUACUCUCCUUCCCACCUUGAGGAUAGUUCUGCUCUGUCCAGCUGAUCAACAGAGGAUUGAGCAUCA
B22: 26115837_26116139_1780_CDS_ENSMUSG00000045039_ENSMUST00000128119|mouse|control|control (ssRNA)
RNA: GGGAGUUCUACAGUCCGACGAUCCGGGGCAAGCUCAGCCCCUGACACCCACUGGUGGCAGCCAAGGUGGUAGAAGAAGAUGCCAUCUUCGUAACACUUUUCCUCCUGGUAAUGCGUAUGCACAUUGCCCCCAUAGACCACCAUCAACAGAGGAUUGAGCAUCA

biological target: T1, UNK ZnF1-3 (human, UniProt Q9C0B0 31-174); assay: nsRBNS (natural sequence RNA bind-n-seq); RBNS binding buffer (assumed for nsRBNS): 25 mM Tris pH 7.5, 150 mM KCl, 3 mM MgCl2, 0.01% Triton X-100, 500 ug/ml BSA, 20 U/ml SUPERase-In, 4 C; UNK is unkempt and MSI1 is Musashi-1; names of the RNAs are library labels; protein concentration not given here; high values mean tight binding
T1 sequence: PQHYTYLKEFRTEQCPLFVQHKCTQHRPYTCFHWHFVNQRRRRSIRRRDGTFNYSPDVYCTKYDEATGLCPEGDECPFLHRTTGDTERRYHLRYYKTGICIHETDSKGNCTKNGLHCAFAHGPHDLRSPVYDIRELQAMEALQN

Binder	binding signal [enrichment R]
B1	1.97
B2	1.62
B3	0.952
B4	1.08
B5	0.673
B6	0.888
B7	0.991
B8	0.959
B9	0.49
B10	0.449
B11	0.972
B12	0.89
B13	1.02
B14	1.02
B15	0.568
B16	0.746
B17	2.66
B18	0.67
B19	1.64
B20	1.05
B21	0.664
B22	0.854
